Results taken from the supplement of paper PMC10670038.
Counter-ions that a name gives are not always drawn. ± gives the standard deviation of the averaged measurements. In all, about 2,000 compounds were measured (“relative cell viability vs DMSO, compound alone”: median about 1.1, lowest 2% from about 0.29 on). The list shows a part of the results.

test system: TE10; test: relative cell viability vs DMSO, compound alone (fraction); TE10 is an esophageal squamous carcinoma line; higher = less cytotoxic; details: 2 µM; 48 h
Method: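 TE10 ESCC cells (1,000/well, 384-well plates) were treated with Selleck bioactive library compounds at 2 uM alone for 48 h. Viability was read by CellTiter-Glo and expressed relative to DMSO wells. Two technical replicates (A, B).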

Structure (SMILES)	relative cell viability
OC[C@H]1O[C@@H](Oc2ccc(O)cc2)[C@H](O)[C@@H](O)[C@@H]1O [Arbutin]	1.14 ± 0.043
CNc1nc(Nc2cnn(C3CCN(C4COC4)CC3F)c2Cl)ncc1C(F)(F)F (stereo unspecified)	1.12 ± 0.037
Nc1ccc(C(=O)NCC(=O)O)cc1 [4-Aminohippuric Acid]	1.15 ± 0.05
COc1ccc(NS(=O)(=O)c2ccc(N)cc2)nn1 [Sulfamethoxypyridazine]	1.131 ± 0.0024
CCCC(=O)O[C@]1(C(=O)COC(C)=O)CC[C@H]2[C@@H]3C[C@H](F)C4=CC(=O)C=C[C@]4(C)[C@@]3(F)[C@@H](O)C[C@@]21C [Difluprednate]	0.948 ± 0.066
CN(NC(=O)CC(=O)NN(C)C(=S)c1ccccc1)C(=S)c1ccccc1 [Elesclomol (STA-4783)]	0.181 ± 0.013
CO[C@@H]1[C@@H](OC(N)=O)[C@@H](O)[C@H](Oc2ccc3c(O)c(NC(=O)c4ccc(O)c(CC=C(C)C)c4)c(=O)oc3c2C)OC1(C)C [Novobiocin Sodium]	0.907 ± 0.039
O=Nc1c(-c2c(O)[nH]c3cc(Br)ccc23)[nH]c2ccccc12	1.16 ± 0.016
CCN1CCN(C(=O)N[C@@H](C(=O)N[C@@H]2C(=O)N3[C@@H]2SC(C)(C)[C@@H]3C(=O)O)c2ccccc2)C(=O)C1=O [Piperacillin Sodium]	1.13 ± 0.095
CN(C)CCC[C@@]1(c2ccc(F)cc2)OCc2cc(C#N)ccc21 [Escitalopram Oxalate]	1.15 ± 0.066
CCCC(=O)Nc1ncnc2c1ncn2[C@@H]1O[C@@H]2COP(=O)(O)O[C@H]2[C@H]1OC(=O)CCC [Dibutyryl-cAMP (Bucladesine)]	1.13 ± 0.012
CC1=CC(=O)NS(=O)(=O)O1 [Acesulfame Potassium]	1.21 ± 0.061
CN1CCCC(n2nc(Cc3ccc(Cl)cc3)c3ccccc3c2=O)CC1 (stereo unspecified) [Azelastine HCl]	1.07 ± 0.12
O=C(c1ccc(F)cc1)N1CCCC(c2nc(-c3ccc(F)cc3)no2)C1 (stereo unspecified)	1.14 ± 0.017
CC(=O)OCOC(=O)CN(CC(=O)OCOC(C)=O)c1ccccc1OCCOc1ccccc1N(CC(=O)OCOC(C)=O)CC(=O)OCOC(C)=O	0.946 ± 0.031
NC(=O)N/N=C/c1ccc([N+](=O)[O-])o1 [Nitrofural]	1.02 ± 0.057
O=C(O[C@H]1CN2CCC1CC2)N1CCc2ccccc2[C@@H]1c1ccccc1 [Solifenacin succinate]	1.103 ± 0.01
CC(C)C[C@H](NC(=O)[C@H](CCc1ccccc1)NC(=O)CN1CCOCC1)C(=O)N[C@@H](Cc1ccccc1)C(=O)N[C@@H](CC(C)C)C(=O)[C@@]1(C)CO1 [Carfilzomib (PR-171)]	0.0894 ± 0.0027
O=S(=O)(c1ccccc1)c1cnc2c(N3CCNCC3)cccc2c1	1.1 ± 0.012
COc1ccc(-n2c(C)c([N+](=O)[O-])c3ccc(O)cc32)cc1	1.03 ± 0.012
CN(C)Cc1cccc(N=C(c2ccccc2)c2c(O)[nH]c3cc(C(N)=O)ccc23)c1	0.925 ± 0.059
O=C(N/N=C/c1ccc(O)c(O)c1)c1cc2ccccc2cc1O [Dynasore]	1.01 ± 0.079
C=CC[C@@H]1/C=C(\C)C[C@H](C)C[C@H](OC)[C@H]2O[C@@](O)(C(=O)C(=O)N3CCCC[C@H]3C(=O)O[C@H](/C(C)=C/[C@@H]3CC[C@@H](O)[C@H](OC)C3)[C@H](C)[C@@H](O)CC1=O)[C@H](C)C[C@@H]2OC [Tacrolimus (FK506)]	1.08 ± 0.02
O=C([O-])c1ccccc1O.[Na+] [Sodium salicylate]	1.16 ± 0.02
COc1ccc2[nH]cc(CCNC(C)=O)c2c1 [Melatonin]	1.01 ± 0.23
Cc1ccc(C(=O)c2cc(O)c(O)c([N+](=O)[O-])c2)cc1 [Tolcapone]	0.978 ± 0.019

Structure (SMILES)	relative cell viability
Cc1cc([N+](=O)[O-])ccc1NS(=O)(=O)c1cc(Cl)ccc1Cl	0.988 ± 0.0067
COc1ccc(COc2ccc(Cc3cnc(N)nc3N)cc2OC)cc1	1.08 ± 0.074
O=C(O)CCNc1cc(N2CCc3ccccc3CC2)nc(-c2ccccn2)n1	1.17 ± 0.1
CCN(Cc1ccncc1)C(=O)C(CO)c1ccccc1 (stereo unspecified) [Tropicamide]	1.09 ± 0.017
CC(=O)O/N=C1\C(=O)N(Cc2cc(Cl)ccc2Cl)c2ccc(Cl)cc21	1.04 ± 0.049
Cc1ncc([N+](=O)[O-])n1CCO [Metronidazole]	1.08 ± 0.032
O=C(Cc1cccc(OC(F)(F)F)c1)Nc1ccc(CCCCc2nnc(NC(=O)Cc3ccccn3)s2)nn1	0.753 ± 0.15
CCN(CC)CC#CCOC(=O)C(O)(c1ccccc1)C1CCCCC1 (stereo unspecified) [Oxybutynin chloride]	1.15 ± 0.056
CCN(CC)CC#CCOC(=O)C(O)(c1ccccc1)C1CCCCC1 (stereo unspecified) [Oxybutynin]	1 ± 0.089
O=C(CCCN1CC=C(n2c(=O)[nH]c3ccccc32)CC1)c1ccc(F)cc1 [Droperidol]	1.08 ± 0.044
CCO[C@@H]1OC(=O)C[C@@H]1NC(=O)[C@@H]1CCCN1C(=O)[C@@H](NC(=O)c1ccc(N)c(Cl)c1)C(C)(C)C	1.11 ± 0.067
CN(C)c1ccc(C(=O)NCCCCCCC(=O)NO)cc1	0.627 ± 0.043
C[C@H]1[C@@H](O)O[C@@H]2O[C@@]3(C)CC[C@H]4[C@H](C)CC[C@@H]1[C@@]24OO3 [Dihydroartemisinin (DHA)]	0.646 ± 0.18
COc1ccc(-c2oc3c(CC=C(C)C)c(O[C@@H]4O[C@H](CO)[C@@H](O)[C@H](O)[C@H]4O)cc(O)c3c(=O)c2O[C@@H]2O[C@@H](C)[C@H](O)[C@@H](O)[C@H]2O)cc1 [Icariin]	1.06 ± 0.039
CCn1cc(C(=O)O)c(=O)c2ccc(C)nc21 [Nalidixic acid]	1.11 ± 0.052
COc1ccc2cc(CCC(C)=O)ccc2c1 [Nabumetone]	1.09 ± 0.037
Cc1ccc(S(=O)(=O)NC(=O)NN2CC3CCCC3C2)cc1 (stereo unspecified) [Gliclazide]	1.13 ± 0.005
Cc1cc(Cn2cnc3c2CC(C(=O)O)N(C(=O)C(c2ccccc2)c2ccccc2)C3)ccc1N(C)C (stereo unspecified)	1.15 ± 0.044
O=C(Nc1cc(C(F)(F)F)ccc1N1CCCCC1)c1ccncc1	1.16 ± 0.077
Cc1ccc(NC(=O)c2ccc(CN3CCN(C)CC3)cc2)cc1Nc1nc(-c2cccnc2)cs1 [Masitinib (AB1010)]	1.084 ± 0.0069
COc1nc(C)nc(Cl)c1NC1=NCCN1 [Moxonidine]	0.997 ± 0.12
CCCC[C@@H](C=O)NC(=O)[C@H](CC(C)C)NC(=O)OCc1ccccc1 [Calpeptin]	1 ± 0.021
Clc1ccc(C(Cn2ccnc2)OCc2c(Cl)cccc2Cl)c(Cl)c1 (stereo unspecified) [Isoconazole nitrate]	0.991 ± 0.011
C=CC(=O)N1CCN(C(=O)CNc2cc(I)c(Cl)cc2O)CC1 [K-Ras(G12C) inhibitor 12]	1.15 ± 0.067
NC(=O)N1c2ccccc2C=Cc2ccccc21 [Carbamazepine]	1.02 ± 0.016
CC(C)n1nc(-c2cc3cc(O)ccc3[nH]2)c2c(N)ncnc21	0.624 ± 0.022

Structure (SMILES)	relative cell viability
O=c1ncccn1[C@@H]1O[C@H](CO)[C@@H](O)[C@H]1O [Zebularine]	1.01 ± 0.023
O=C(CCCCCCNC(=O)c1cnc(N(c2ccccc2)c2ccccc2)nc1)NO [Rocilinostat (ACY-1215)]	0.866 ± 0.01
NC(CO)(CO)CO [Trometamol]	1.14 ± 0.028
C[C@@H](N)[C@H]1CC[C@H](C(=O)Nc2ccncc2)CC1	1.06 ± 0.02
O=c1cc(-c2ccc(O)cc2)oc2cc(O)cc(O)c12 [Apigenin]	1.07 ± 0.066
O=C1CN2Cc3c(ccc(Cl)c3Cl)N=C2N1 [Anagrelide HCl]	1.1 ± 0.055
CC(C)NCC(O)COc1ccc(COCCOC(C)C)cc1 (stereo unspecified) [Bisoprolol fumarate]	1.03 ± 0.083
COc1ccc(-c2cc(=O)c3c(O)cc(O)cc3o2)cc1O [Diosmetin]	1.04 ± 0.14
CN1CC[C@H](c2c(O)cc(O)c3c(=O)cc(-c4ccccc4Cl)oc23)[C@H](O)C1 [Flavopiridol (Alvocidib)]	0.228 ± 0.055
CN1CC[C@H](c2c(O)cc(O)c3c(=O)cc(-c4ccccc4Cl)oc23)[C@H](O)C1 [Flavopiridol HCl]	0.293 ± 0.03
Nc1nc(Cl)nc2c1ncn2[C@@H]1O[C@H](CO)[C@@H](O)[C@@H]1F [Clofarabine]	0.932 ± 0.038
O=C(NCCS(=O)(=O)c1ccc(C(F)(F)F)cn1)c1ccc(Cl)cc1	1.08 ± 0.018
C=C1CC[C@H](O)C/C1=C/C=C1\CCC[C@]2(C)[C@@H]([C@H](C)CCCC(C)(C)O)CC[C@@H]12 [Calcifediol]	1.01 ± 0.016
CC(C)CC(=O)Nc1n[nH]c2c1CN(C(=O)C1CCN(C)CC1)C2(C)C	0.721 ± 0.1
CC(=O)N1c2ccc(-c3ccc(C(=O)O)cc3)cc2[C@H](Nc2ccc(Cl)cc2)C[C@@H]1C	0.619 ± 0.033
CC[C@H]1OC(=O)[C@H](C)[C@@H](O[C@H]2C[C@@](C)(OC)[C@@H](O)[C@H](C)O2)[C@H](C)[C@@H](O[C@@H]2O[C@H](C)C[C@H](N(C)C)[C@H]2O)[C@](C)(O)C[C@@H](C)/C(=N\OCOCCOC)[C@H](C)[C@@H](O)[C@]1(C)O [Roxithromycin]	1.14 ± 0.014
Nc1nc(F)nc2c1ncn2[C@@H]1O[C@H](CO)[C@@H](O)[C@@H]1O [Fludarabine]	0.291 ± 0.0055
CCOC(=O)[C@H](CCc1ccccc1)N[C@H]1CCc2ccccc2N(CC(=O)O)C1=O [Benazepril HCl]	1.047 ± 0.0035
O=C(Nc1c[nH]nc1-c1nc2ccc(CN3CCOCC3)cc2[nH]1)NC1CC1	0.811 ± 0.14
COC1=C(OC)C(=O)C(CCCCCCCCCCO)=C(C)C1=O [Idebenone]	1.04 ± 0.064
Cc1nc(NC(=O)N2CCC[C@H]2C(N)=O)sc1-c1csc(C(C)(C)C)n1	0.751 ± 0.027
O=C(Nc1cccc2c(=O)cc(-c3nnn[nH]3)oc12)c1ccc(OCCCCc2ccccc2)cc1 [Pranlukast]	0.943 ± 0.027
CC(C)(C)NC[C@H](O)COc1nsnc1N1CCOCC1 [Timolol Maleate]	1.1 ± 0.043
COc1cc(OC)c2c(=O)[nH]c(-c3cc(C)c(OCCO)c(C)c3)nc2c1	0.8141 ± 0.0068
